The text below walks through data of the supplement of paper PMC10369915.

Some of the results follow. No stated cut-off is given here; in the data, active = 3.2 or more and inactive = the rest. Most of these values are background signal.
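Further: displayed peptides selected on beads carrying the immobilized SH2 domain, with library peptides lacking any tyrosine serving as negative controls.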

The target of one assay is SHP2 C-SH2 domain E139D. The experiment in a line: enrichment score (SH2-bound / input frequency) (ratio); bacterial display of known human phosphotyrosine sites (pTyr-Var adds point mutants) read by sequencing; higher = stronger binding; tyrosines were phosphorylated by kinases first. Conditions: peptide library: pTyr-Var.
Consider ALWFIYLHTRS [ENG_Y614_S615L_YF], for which the enrichment score was inactive: 0.696.

Regarding SAASSYSFSDL [EMD_Y59], the enrichment score was inactive: 0.487.

For IDNKMYDPKMN [ENPP1_Y280], the enrichment score was inactive: 0.724.

On to LDLSYYPTSSS [EMD_Y182], for which the enrichment score was inactive: 1.47.

Consider FEPDAYFDLDQ [ELP5_Y302_D303Y_YF], for which the enrichment score was inactive: 0.639.

Take ALWYIYLHTRS [ENG_Y614_S615L]: the enrichment score is inactive: 0.739.

For TAALWYIFLHT [ENG_Y612_S615L_YF], the enrichment score was inactive: 1.64.

Regarding SDPIVYTLENI [EMR1_Y534_I533V], the enrichment score is inactive: 0.679.

Take ETGEPYRLSPE [EIF4G1_Y311]: the enrichment score is inactive: 0.478.

With TAALWYIFSHT [ENG_Y612_YF], the enrichment score was inactive: 1.78.

On to FNVLQYVVPKV [EIF3A_Y382_E386K], for which the enrichment score is inactive: 1.48.

On to ETGEPCRLSPE [EIF4G1_Y311_Y311C], for which the enrichment score was inactive: 0.768.

As to LTTEAYEWEPR [ELMOD3_Y61], the enrichment score was inactive: 1.11.

Turning to LDLSFYHTSSS [EMD_Y182_P183H_YF], the enrichment score was inactive: 1.95.

As to IGKAGYTDKVV [ENO1_Y236], the enrichment score is inactive: 0.712.

Take AEPHTYEEPGR [EPHA8_Y616]: the enrichment score is inactive: 0.441.

As for GRFCGYKSKHG [EPHA3_Y570], the enrichment score was inactive: 2.51.

Turning to SLDLSYFHTSS [EMD_Y181_P183H_YF], the enrichment score is inactive: 1.41.

The target of another assay is SHP2 C-SH2 domain wild-type. The assay is described as above. Conditions: peptide library: pTyr-Var.
With ALWFIYLHTRS [ENG_Y614_S615L_YF], the enrichment score is inactive: 0.716.

Turning to SAASSYSFSDL [EMD_Y59], the enrichment score was inactive: 0.77.

IDNKMYDPKMN [ENPP1_Y280]: the enrichment score was inactive: 0.767.

With LDLSYYPTSSS [EMD_Y182], the enrichment score is inactive: 0.869.

Regarding FEPDAYFDLDQ [ELP5_Y302_D303Y_YF], the enrichment score is inactive: 0.691.

Turning to ALWYIYLHTRS [ENG_Y614_S615L], the enrichment score was inactive: 0.792.

Consider TAALWYIFLHT [ENG_Y612_S615L_YF], for which the enrichment score is inactive: 1.81.

On to SDPIVYTLENI [EMR1_Y534_I533V], for which the enrichment score was inactive: 0.663.

Consider ETGEPYRLSPE [EIF4G1_Y311], for which the enrichment score is inactive: 0.568.

Take TAALWYIFSHT [ENG_Y612_YF]: the enrichment score is inactive: 1.46.

Consider FNVLQYVVPKV [EIF3A_Y382_E386K], for which the enrichment score is inactive: 1.92.

For the molecule ETGEPCRLSPE [EIF4G1_Y311_Y311C], the enrichment score is inactive: 0.658.

For the molecule LTTEAYEWEPR [ELMOD3_Y61], the enrichment score is inactive: 0.782.

Turning to LDLSFYHTSSS [EMD_Y182_P183H_YF], the enrichment score is inactive: 1.23.

Regarding IGKAGYTDKVV [ENO1_Y236], the enrichment score is inactive: 0.813.

Take AEPHTYEEPGR [EPHA8_Y616]: the enrichment score is inactive: 0.532.

Turning to GRFCGYKSKHG [EPHA3_Y570], the enrichment score is inactive: 1.59.

As to SLDLSYFHTSS [EMD_Y181_P183H_YF], the enrichment score is inactive: 0.975.

The target of a further assay is SHP2 N-SH2 domain L43F. The assay is described as above. As to conditions: peptide library: pTyr-Var.
On to ALWFIYLHTRS [ENG_Y614_S615L_YF], for which the enrichment score is inactive: 0.746.

Regarding SAASSYSFSDL [EMD_Y59], the enrichment score was inactive: 0.594.

For the molecule IDNKMYDPKMN [ENPP1_Y280], the enrichment score is inactive: 0.551.

Regarding LDLSYYPTSSS [EMD_Y182], the enrichment score is inactive: 1.2.

FEPDAYFDLDQ [ELP5_Y302_D303Y_YF]: the enrichment score was inactive: 0.671.

In the case of ALWYIYLHTRS [ENG_Y614_S615L], the enrichment score is inactive: 0.631.

On to TAALWYIFLHT [ENG_Y612_S615L_YF], for which the enrichment score was inactive: 1.75.

For SDPIVYTLENI [EMR1_Y534_I533V], the enrichment score is inactive: 0.648.

As to ETGEPYRLSPE [EIF4G1_Y311], the enrichment score was inactive: 0.608.

For the molecule TAALWYIFSHT [ENG_Y612_YF], the enrichment score is inactive: 1.43.

FNVLQYVVPKV [EIF3A_Y382_E386K]: the enrichment score was active: 5.07.

With ETGEPCRLSPE [EIF4G1_Y311_Y311C], the enrichment score was inactive: 0.621.

As for LTTEAYEWEPR [ELMOD3_Y61], the enrichment score is inactive: 1.03.

For the molecule LDLSFYHTSSS [EMD_Y182_P183H_YF], the enrichment score is inactive: 1.36.

Turning to IGKAGYTDKVV [ENO1_Y236], the enrichment score was inactive: 0.856.

For AEPHTYEEPGR [EPHA8_Y616], the enrichment score was inactive: 0.482.

GRFCGYKSKHG [EPHA3_Y570]: the enrichment score is inactive: 2.13.

Regarding SLDLSYFHTSS [EMD_Y181_P183H_YF], the enrichment score is inactive: 1.16.

The target of a further assay is SHP2 N-SH2 domain T42A. The description is as above. Conditions: peptide library: pTyr-Var.
For ALWFIYLHTRS [ENG_Y614_S615L_YF], the enrichment score was inactive: 0.729.

For the molecule SAASSYSFSDL [EMD_Y59], the enrichment score is inactive: 0.623.

For the molecule IDNKMYDPKMN [ENPP1_Y280], the enrichment score was inactive: 0.66.

In the case of LDLSYYPTSSS [EMD_Y182], the enrichment score is inactive: 1.28.

Regarding FEPDAYFDLDQ [ELP5_Y302_D303Y_YF], the enrichment score is inactive: 0.582.

With ALWYIYLHTRS [ENG_Y614_S615L], the enrichment score is inactive: 0.622.

As for TAALWYIFLHT [ENG_Y612_S615L_YF], the enrichment score is inactive: 1.42.

As to SDPIVYTLENI [EMR1_Y534_I533V], the enrichment score is inactive: 0.749.

In the case of ETGEPYRLSPE [EIF4G1_Y311], the enrichment score was inactive: 0.428.

Take TAALWYIFSHT [ENG_Y612_YF]: the enrichment score was inactive: 1.4.

On to FNVLQYVVPKV [EIF3A_Y382_E386K], for which the enrichment score is active: 6.07.

Turning to ETGEPCRLSPE [EIF4G1_Y311_Y311C], the enrichment score is inactive: 0.555.

Regarding LTTEAYEWEPR [ELMOD3_Y61], the enrichment score was inactive: 0.755.

For LDLSFYHTSSS [EMD_Y182_P183H_YF], the enrichment score was inactive: 1.52.

Regarding IGKAGYTDKVV [ENO1_Y236], the enrichment score was inactive: 0.699.

As for AEPHTYEEPGR [EPHA8_Y616], the enrichment score was inactive: 0.433.

As to GRFCGYKSKHG [EPHA3_Y570], the enrichment score was inactive: 1.66.

With SLDLSYFHTSS [EMD_Y181_P183H_YF], the enrichment score is inactive: 1.05.

Another assay concerns the target SHP2 N-SH2 domain T52S. Described as above. Conditions: peptide library: pTyr-Var.
As for ALWFIYLHTRS [ENG_Y614_S615L_YF], the enrichment score is inactive: 0.6.

On to SAASSYSFSDL [EMD_Y59], for which the enrichment score is inactive: 0.529.

For IDNKMYDPKMN [ENPP1_Y280], the enrichment score was inactive: 0.584.

For LDLSYYPTSSS [EMD_Y182], the enrichment score is inactive: 1.76.

For the molecule FEPDAYFDLDQ [ELP5_Y302_D303Y_YF], the enrichment score is inactive: 0.604.

For the molecule ALWYIYLHTRS [ENG_Y614_S615L], the enrichment score was inactive: 0.782.

TAALWYIFLHT [ENG_Y612_S615L_YF]: the enrichment score was inactive: 1.57.

In the case of SDPIVYTLENI [EMR1_Y534_I533V], the enrichment score was inactive: 0.957.

Consider ETGEPYRLSPE [EIF4G1_Y311], for which the enrichment score was inactive: 0.47.

In the case of TAALWYIFSHT [ENG_Y612_YF], the enrichment score was inactive: 1.36.

Consider FNVLQYVVPKV [EIF3A_Y382_E386K], for which the enrichment score was active: 7.

Regarding ETGEPCRLSPE [EIF4G1_Y311_Y311C], the enrichment score was inactive: 0.573.

As to LTTEAYEWEPR [ELMOD3_Y61], the enrichment score was inactive: 0.893.

As for LDLSFYHTSSS [EMD_Y182_P183H_YF], the enrichment score is inactive: 1.4.

With IGKAGYTDKVV [ENO1_Y236], the enrichment score was inactive: 0.847.

As for AEPHTYEEPGR [EPHA8_Y616], the enrichment score is inactive: 0.485.

In the case of GRFCGYKSKHG [EPHA3_Y570], the enrichment score was inactive: 2.15.

In the case of SLDLSYFHTSS [EMD_Y181_P183H_YF], the enrichment score is inactive: 1.22.

A further assay has as its target SHP2 N-SH2 domain wild-type. Described as above. Conditions: peptide library: pTyr-Var.
As for ALWFIYLHTRS [ENG_Y614_S615L_YF], the enrichment score was inactive: 0.781.

For the molecule SAASSYSFSDL [EMD_Y59], the enrichment score is inactive: 0.933.

For IDNKMYDPKMN [ENPP1_Y280], the enrichment score is inactive: 0.846.

In the case of LDLSYYPTSSS [EMD_Y182], the enrichment score was inactive: 0.899.

For FEPDAYFDLDQ [ELP5_Y302_D303Y_YF], the enrichment score was inactive: 0.864.

As for ALWYIYLHTRS [ENG_Y614_S615L], the enrichment score was inactive: 0.912.

For TAALWYIFLHT [ENG_Y612_S615L_YF], the enrichment score was inactive: 1.8.

Take SDPIVYTLENI [EMR1_Y534_I533V]: the enrichment score is inactive: 0.848.

On to ETGEPYRLSPE [EIF4G1_Y311], for which the enrichment score was inactive: 0.685.

As for TAALWYIFSHT [ENG_Y612_YF], the enrichment score was inactive: 1.6.

Take FNVLQYVVPKV [EIF3A_Y382_E386K]: the enrichment score was inactive: 2.12.

ETGEPCRLSPE [EIF4G1_Y311_Y311C]: the enrichment score is inactive: 0.759.

For LTTEAYEWEPR [ELMOD3_Y61], the enrichment score was inactive: 0.929.

For the molecule LDLSFYHTSSS [EMD_Y182_P183H_YF], the enrichment score was inactive: 1.58.

In the case of IGKAGYTDKVV [ENO1_Y236], the enrichment score is inactive: 0.97.

AEPHTYEEPGR [EPHA8_Y616]: the enrichment score was inactive: 0.51.

As to GRFCGYKSKHG [EPHA3_Y570], the enrichment score was inactive: 2.01.

Consider SLDLSYFHTSS [EMD_Y181_P183H_YF], for which the enrichment score is inactive: 0.954.
